From PubChem BioAssay AID686979 (National Center for Advancing Translational Sciences (NCATS), 2013)
Screen size: about 420,000 compounds; about 50,000 (12%) were called active. Inconclusive results, whose numbers are uncertain, are shown with a selection of clear calls. Calls come from the whole dose curve; as a rule, active = well fitted inhibition curve with a large enough effect; inconclusive = small, poorly fitted or top-dose-only effect; inactive = flat fitted curve, though single readings scatter. Potencies of inconclusive entries are left out as doubtful fits.

assay: qHTS for Inhibitors of human tyrosyl-DNA phosphodiesterase 1 (TDP1): qHTS in cells in presence of CPT; conditions: chicken DT40 Tdp1-/-;hTDP1 cells + 20 nM CPT, ATP luminescence, 48 h; activity change, negative = growth inhibition: at 46.2 µM (top of the series) unless noted; note: nearly all actives have a fitted effect of over 55% in size
Procedure, shortened: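 Cell growth measured by CellTiter-Glo luminescence after a minimum 48 h, 37 C compound exposure with 20 nM CPT in Tdp1-knockout DT40 cells stably expressing hTDP1, seeded 400/well; qHTS titration format.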
% is set by controls: 0 for no effect and ±100 for the full control effect; potency is the fitted concentration of half-maximal effect; tags give direction and shape of the fitted curve.

Compound | Potency | activity change, negative = growth inhibition
COc1ccc2c(c1)-c1nc(NC(=O)c3ccc(Cl)cc3)sc1CC2 | inconclusive [inhibitor, single point] | 
COc1ccc(NC(=O)c2sc3nc4c(cc3c2N)N2CCC4CC2)cc1OC | inconclusive [inhibitor, single point] | 
CCCCCOc1ccc(C2SC(=O)NC2=O)cc1OCC (centres undefined) | inconclusive [inhibitor, single point] | 
C=CC[C@@H](CC(=O)N(CCO)Cc1ccccc1)C(=O)NC[C@H](OC(=O)[C@@H](CC=C)CC(=O)OC(C)(C)C)c1ccccc1 | active: 20.6 µM | 
CCCCCCCCCC(CC)c1ccc(S(=O)(=O)O)cc1 (centres undefined) | inconclusive [inhibitor, single point] | 
O=Cc1cn(Cc2c(F)cccc2Cl)nc1-c1ccccc1 | inconclusive [inhibitor, single point] | 
CCOP(=O)(OCC)c1nc(-c2ccccc2)oc1NCc1ccccc1 | inconclusive [inhibitor, partial curve] | 
CCOc1ccc(N2C(=O)/C(=C/c3ccc(C)o3)C(=O)NC2=S)cc1 | inconclusive [inhibitor, single point] | 
C=CCn1c(O)c(C(CC)=Nc2ccc3c(c2)CCC3)c(=O)[nH]c1=O | inconclusive [inhibitor, single point] | 
Oc1ccccc1-c1ccccc1 |  | inactive: 0.063%
CCCCn1c(O)c(/C=C2/C=CC=N2)c(=O)[nH]c1=O | active: 18.4 µM | 
CNC(=O)Oc1ccccc1OC(C)C | inconclusive [inhibitor, single point] | 
CN1CCN(c2nc(Cl)ncc2F)CC1 |  | inactive: 0.0866%
c1cnc2ccc(C(c3nnnn3C3CCCCC3)N3CCN(C4CCCCC4)CC3)cc2c1 (centres undefined) | active: 13 µM | 
O=c1[nH]c2ccccc2n1C1CCN(C(c2ccccc2)c2nnnn2Cc2ccccc2)CC1 (centres undefined) | active: 18.4 µM | 
CCC(=O)Nc1ccc(C(=O)OCc2ccccc2Cl)cc1 | inconclusive [inhibitor, partial curve] | 
Cc1ccccc1-n1c(O)c(/C=N/N2CCOCC2)c(=O)[nH]c1=S |  | inactive: -0.378%
CC(Oc1ccccc1)C(=O)Nc1ccc(C(=O)OCc2cc(=O)n3nc(C4CC4)sc3n2)cc1 (centres undefined) | inconclusive [inhibitor, single point] | 
C[C@@H]1O[C@@H](O[C@@H]2C=C3CC[C@@H]4C(CC[C@]5(C)[C@@H](c6ccc(=O)oc6)CC[C@]45O)[C@@]3(C)CC2)[C@H](O)[C@H](O)[C@H]1O (some centres undefined) | active: 0.164 µM | 
